Assay results reported in the supplement of paper PMC11417369.
The list shows a part of the results.

The sequences below were run on PfAP2-HC AP2 domain (GST-tagged) (assay: gcPBM binding intensity (ln(normalized median fluorescence intensity)); higher = stronger DNA binding).
How it was run: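 DNA-binding domains from P. falciparum, fused to GST and produced in E. coli, were put on an Agilent 4 × 180k double-stranded probe array for 1 h in 1× PBS holding 1% milk, 0.2 mg/ml BSA, 0.5% salmon testes DNA and 0.03% Triton X-100. Probes were primer-extended, 36 bp long and drawn from intergenic genomic regions, with negative controls included. After Alexa488 anti-GST antibody detection and a 488 nm scan, binding intensity was set as the highest Masliner-normalised natural-log median intensity across replicate spots of either probe orientation.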

Sequence	gcPBM binding intensity (ln)
AAAAAAAAAAAGAAGGAAACATTTGACCAAAAATAT [GTGCAC_negctrl_site404]	9.58
ATTCTATACATATATATACACACGTAGTTTCTATTT [CACACA_site2223]	9.9
ATTTTATTTTCATATGAACACACATATATATATTAT [CACACA_site8741]	10.1
AACAACCAAAGGCACACACACAAAAAAAAAAATATA [CACACA_site399]	10.5
CTGCGTTTAATATGCGTGCACCTTGGTTTTATATCT [GTGCAC_site9525]	9.83
AAAAAAAAAAAATATTGTAGAATATGATGACTTTGT [GTGCAC_negctrl_site554]	9.64
TTTTAAATATGCCATACACACTACTATATAATAAAT [CACACA_site5119]	9.68
ACATAAGATGAAAAATGTACATTCAAAAAATGAAAT [XGTACX_site3227]	9.84
TGATAAGGATGTGAATTACTCAAAGGAAGTAATCAT [CACACA_negctrl_site1432]	9.52
ACAAAACTGTCTTTCACACAGAAATAAAAAAAAAAA [CACACA_site5829]	9.26
AAATTTCATGGGTATTGTACATAATTTTATTATATA [XGTACX_site4988]	9.62
TATTTACACCCATGCGCACACATAAATAAATAATAG [CACACA_site5350]	9.98
TATATATATGTATGTGGTACTTATATTATATACATA [XGTACX_site4550]	9.6
CCATGTAGTGAATAGGTGCATATCAAAAAAAAAAAA	9.49
ACAGAAAATAAAATTTGTACATATATAGAATAAAGA [XGTACX_site3014]	9.74
ATACATATGGTGGATCGTACATATATATAATATGTA [XGTACX_site8631]	9.69
AGATATTATTTATATATTTATATATATATATAGATA [TGCATGCA_negctrl_site77]	9.41
AGAGAAAAAAAAAATTGTACGTATGTAATAATATGC [XGTACX_site2981]	10.1
TAAATATCAAGACACACACACAAAAGTGAATAAATA [CACACA_site7723]	10.3
AAAGTAAAAGAAAGCACACACACATGGATTTATGTA [CACACA_site5997]	10.9
TTCTTTTTAAATTACACACACATATATATATGTATA [CACACA_site3515]	10.1
TGTTGTATTGAAGCTAAAAAATGAGGCAAAAAAAAA [CACACA_negctrl_site1189]	9.58

Sequence	gcPBM binding intensity (ln)
ATTTATGAGTAATACACACACTTGTGGATATATTAC [CACACA_site7735]	9.83
TTTATATAATATAAATTTTTTTTGCAGTAATAAAAA [TGCATGCA_negctrl_site570]	8.98
ACTTCAAAAAAAAAAAAATATATATATATATATTAT [GTGCAC_negctrl_site158]	9.33
TTATACACAAAAAAAAAAATATATATATATATATAT [XGTACX_negctrl_site5]	9.49
TCATACATGTATATGTGTACATATAATGTATATTCC [XGTACX_site6082]	9.6
TTATATTCTTTTCTCTTTCTACTTTTTTTTTTTTTT [XGTACX_negctrl_site317]	9.6
AAGAAAAACTTATATATATATATATATATATATATA [TGCATGCA_negctrl_site466]	9.93
TATAAATATTTATGTACACACATATACATGTTGAAT [CACACA_site5684]	10
AAAAAAAAAAAAAAAAGTACAAAAAGAAGAAAAAAA [XGTACX_site6521]	9.64
TTTTTTTTTTTTTTTTTTTTTTTATGTTCTTAAAAA [GTGCAC_negctrl_site62]	8.63
AAAATATAGGTATGCACACACATATACTTCTGTGCA [CACACA_site1409]	10.2
TTTTTTTTTTTTACGTGTACATAAATGTTAAGTAAT [XGTACX_site3901]	9.51
AAAAAAAATTTAATTGCACACAGGAAAATATAATTT [CACACA_site3810]	9.73
TAAATACAGAGGAAAATACACACGTATATATATAAA [CACACA_site3410]	9.89
TATAAATATACAAACACACATACAAACATATATATA [CACACA_site1120]	10.2
TTAATACCCAGACACACACACACAAAATAAAATACA [CACACA_site7968]	11
CAATGTTAACATATTACACACATATGTATTTATAAC [CACACA_site7314]	9.82
TAAATATATAATAAATGTACATATTAATATTATGGT [XGTACX_site1498]	9.74
ATATGATCATTTTATCATTTTGCTTTTTCTTTTTTT [CACACA_negctrl_site1325]	9.73
ATCGTGTTAAATGTTGTGCACATATAAATTACAAAA [GTGCAC_site9822]	9.66
AATTTTGGAACGTGCACACATATGTAATATATATAT [CACACA_site3067]	9.88
TTTTTTTAATGATATTGTACATTAATAAAAAATATG [XGTACX_site1719]	9.4

Sequence	gcPBM binding intensity (ln)
ATTTGATATATAATAATACACACTTACATAATTAAT [CACACA_site290]	9.73
TCTTTTTCAAGATGACGTACTTAGATTAATATAAAA [XGTACX_site3931]	9.31
TTTTTAATATATTAGGTGCACAATAATACACTTTAT	9.75
TATATATATATTTATACACACACATATATTTATATA [CACACA_site8054]	10.1
ATTAGTATAATGTAACTTAGTTAATAGTGCTAATAT [CACACA_negctrl_site764]	9.82
CAAAAGTAAGCACGCACACACAACATGAAATAAAAT [CACACA_site165]	10.8
TATACACTTATTGGTGGTACAATATATAAATATATG [XGTACX_site3289]	9.56
TTTTGATCTGAAGGAACCTAAAAAGGGAAGAGAAAA [CACACA_negctrl_site1656]	9.37
AAAAAAAACACGCGCACACACACACCCACCCACCGA [CACACA_site2206]	11.5
TATATTTATAACAACACACACAGATCATAAAACTGC [CACACA_site7086]	10.6
ACAAAATAAAACATCTGTACATATTATTATTATAAG [XGTACX_site4802]	9.71
ATATTTTGTAACTATACACACATATTTATATTATAA [CACACA_site7433]	9.73
ATATATATAAATAATTGTACATAATAATAAAATATA [XGTACX_site4839]	9.73
ATATAAAATATTACGTGTACACATAAATAAAAATAA [XGTACX_site3746]	9.92
CAAGTAGATATTATACGTACATATATATATATATAT [XGTACX_site8349]	9.61
TTTTATACATATTTTACACACTAAAATATACCTATA [CACACA_site6286]	9.79
TAAAAAATATACATTCGTACATATATATTATATATA [XGTACX_site7918]	9.51
TACATATATATATTATGTACATAAGGTTTGAGTTCA [XGTACX_site2726]	9.69
GAAAAAAAAGCTTGCACACGTATTTGCTTTATGTAT [CACACA_site4931]	9.92
TTTTTGGTATTATTGTGTACTTATAAATAATATAAT [XGTACX_site4019]	9.64
AAAAAAAAATATACATATATATATATATATATATAT [CACACA_negctrl_site1763]	9.61
ATAATTCCAAGAATTTCATATATCTGAATTTTAGGT [GTGCAC_negctrl_site283]	9.4

Sequence	gcPBM binding intensity (ln)
ATATATATATATATTACACACTTTTTCTTTTTTTTT [CACACA_site2780]	9.81
AATAAACATAAATAAAAATTATAAAATATATATATG [CACACA_negctrl_site1709]	9.75
TTTACATTTCAGTAGACACACAAAAAATAATACTAA [CACACA_site512]	9.63
GTTCCATGAGTATATACATGCATATATCTAGTTTAT [TGCATGCA_site388]	9.87
TTTTAAATAAAAAAATTAAATTAAAATATATAAAAA [XGTACX_negctrl_site490]	9.34
TGTTTATACAATATTTGTACATATATTTTTATTTTT [XGTACX_site4104]	9.76
CATTTTTACAACGTTGCACACTTCAAAAGGTTTACA [CACACA_site2760]	9.79
GATACTCTCTTTTAATGTACAAAATTTTAAAAATTA [XGTACX_site1781]	9.2
TATAAAAAAAAAAAAAGTACTTAAATATAAATAAAT [XGTACX_site5052]	9.66
AATTTATGTTTTAAAAGTACTTTTCTAATTTATAAA [XGTACX_site1593]	9.75
TATGTACAGACATATACACACCTCTATAATCTATAT [CACACA_site6482]	9.87
CTAAAGTAAATTTAAGCACACACAACGAATTTTTAT [CACACA_site8599]	10.2
AATTAAAAAAAATACACACACACATACCCATATATA [CACACA_site5767]	10.4
AATGATATATTATAAACACACAAAGATGAATATATA [CACACA_site2818]	9.92
ATTCATTCATATGTTACACACACACCCACCCATAAA [CACACA_site9066]	10.1
TACCCTCGTATATATATACACACTAAAATACAGACA [CACACA_site4154]	9.66
TTTATCGAATATAATAGTACATAAAAAAAAAAAAAA [XGTACX_site1734]	9.33
AGATTATATAAAAAAGTGCATATTTTCATTTTTTTT [GTGCAC_site9448]	9.55
CATTAAAATGGTAAATGTACATATCCATCTTCTCAC [XGTACX_site4636]	9.81
TCCCTTTGTATATATATATAAATATATATATATATA [CACACA_negctrl_site157]	9.65
AAAAAAGAAAAAAACTGTACATGATAAATATTTATT [XGTACX_site7270]	9.71
ACATTTTTTTTGTGAGTCTTTGCGGCATCAAAATTT [XGTACX_negctrl_site348]	9.5
